Among the data in PMC3898904 are binding values, retold here.

By UniProt entry, the sequences of proteins in these tests, tags left out.
UniProt Q94A79: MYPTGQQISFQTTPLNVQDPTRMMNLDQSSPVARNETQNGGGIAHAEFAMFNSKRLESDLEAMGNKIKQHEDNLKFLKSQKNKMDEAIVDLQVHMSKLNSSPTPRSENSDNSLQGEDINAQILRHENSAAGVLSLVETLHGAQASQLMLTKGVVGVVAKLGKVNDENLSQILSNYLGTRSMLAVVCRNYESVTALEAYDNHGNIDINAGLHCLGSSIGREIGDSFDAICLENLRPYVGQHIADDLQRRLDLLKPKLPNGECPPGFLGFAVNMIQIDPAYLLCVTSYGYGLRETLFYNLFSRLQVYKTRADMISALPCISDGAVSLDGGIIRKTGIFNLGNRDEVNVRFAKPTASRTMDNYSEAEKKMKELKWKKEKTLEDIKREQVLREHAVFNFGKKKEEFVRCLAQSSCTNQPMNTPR

No constants are given. Whether binding was seen depends on the method and setting. For some assays here: In cells and extracts the contact can be indirect. Some binding calls cover weakened binding; strength is not graded here. Sequences can lack the tags named with a protein.

Test [1] has as its target T1, SUVH2-3xMyc (Arabidopsis thaliana) (UniProt O22781).
T1 sequence: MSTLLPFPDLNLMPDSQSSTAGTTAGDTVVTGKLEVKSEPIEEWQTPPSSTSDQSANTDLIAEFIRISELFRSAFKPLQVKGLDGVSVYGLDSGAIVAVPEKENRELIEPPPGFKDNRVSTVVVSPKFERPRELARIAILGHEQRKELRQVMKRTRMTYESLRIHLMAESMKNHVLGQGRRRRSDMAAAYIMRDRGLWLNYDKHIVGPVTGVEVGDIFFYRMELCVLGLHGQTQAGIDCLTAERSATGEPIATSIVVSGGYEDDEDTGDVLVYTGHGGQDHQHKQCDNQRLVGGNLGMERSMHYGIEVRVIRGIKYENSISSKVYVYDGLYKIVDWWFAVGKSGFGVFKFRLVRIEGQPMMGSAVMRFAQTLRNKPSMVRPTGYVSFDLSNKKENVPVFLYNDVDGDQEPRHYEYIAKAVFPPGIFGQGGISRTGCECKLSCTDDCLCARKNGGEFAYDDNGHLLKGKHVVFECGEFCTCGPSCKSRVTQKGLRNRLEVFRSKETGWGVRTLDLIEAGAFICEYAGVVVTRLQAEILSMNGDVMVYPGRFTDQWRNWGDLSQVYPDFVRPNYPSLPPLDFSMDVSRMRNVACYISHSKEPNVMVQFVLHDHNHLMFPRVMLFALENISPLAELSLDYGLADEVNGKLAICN
Briefly: co-IP; protein extracts of transgenic plants incubated with agarose-conjugated antibodies in Lysis buffer at 4°C for 2-3 h, four washes, Western blotting.

Test [2] addresses T2, MORC1-3xFlag (Arabidopsis thaliana) (UniProt Q84WV6).
T2 sequence: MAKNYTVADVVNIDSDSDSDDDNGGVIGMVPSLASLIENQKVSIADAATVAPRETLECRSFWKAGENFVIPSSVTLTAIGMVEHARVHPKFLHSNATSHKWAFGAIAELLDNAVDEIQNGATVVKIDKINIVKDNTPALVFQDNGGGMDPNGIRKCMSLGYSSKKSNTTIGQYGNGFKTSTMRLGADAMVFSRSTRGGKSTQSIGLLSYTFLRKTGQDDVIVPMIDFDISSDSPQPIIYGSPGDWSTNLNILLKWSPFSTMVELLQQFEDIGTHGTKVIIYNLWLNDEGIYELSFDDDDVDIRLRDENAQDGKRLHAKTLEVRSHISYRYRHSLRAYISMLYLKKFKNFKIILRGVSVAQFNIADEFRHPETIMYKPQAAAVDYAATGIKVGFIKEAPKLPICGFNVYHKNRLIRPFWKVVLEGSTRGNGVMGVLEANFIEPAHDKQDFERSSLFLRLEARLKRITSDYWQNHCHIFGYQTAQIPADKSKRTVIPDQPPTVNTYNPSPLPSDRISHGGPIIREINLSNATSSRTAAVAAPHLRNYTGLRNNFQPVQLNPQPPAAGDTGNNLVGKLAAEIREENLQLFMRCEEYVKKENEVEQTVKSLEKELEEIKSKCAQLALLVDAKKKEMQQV
The test is described as above.

In test [3] the target is T3, SUVH9-3xFlag (Arabidopsis thaliana) (UniProt Q9T0G7).
T3 sequence: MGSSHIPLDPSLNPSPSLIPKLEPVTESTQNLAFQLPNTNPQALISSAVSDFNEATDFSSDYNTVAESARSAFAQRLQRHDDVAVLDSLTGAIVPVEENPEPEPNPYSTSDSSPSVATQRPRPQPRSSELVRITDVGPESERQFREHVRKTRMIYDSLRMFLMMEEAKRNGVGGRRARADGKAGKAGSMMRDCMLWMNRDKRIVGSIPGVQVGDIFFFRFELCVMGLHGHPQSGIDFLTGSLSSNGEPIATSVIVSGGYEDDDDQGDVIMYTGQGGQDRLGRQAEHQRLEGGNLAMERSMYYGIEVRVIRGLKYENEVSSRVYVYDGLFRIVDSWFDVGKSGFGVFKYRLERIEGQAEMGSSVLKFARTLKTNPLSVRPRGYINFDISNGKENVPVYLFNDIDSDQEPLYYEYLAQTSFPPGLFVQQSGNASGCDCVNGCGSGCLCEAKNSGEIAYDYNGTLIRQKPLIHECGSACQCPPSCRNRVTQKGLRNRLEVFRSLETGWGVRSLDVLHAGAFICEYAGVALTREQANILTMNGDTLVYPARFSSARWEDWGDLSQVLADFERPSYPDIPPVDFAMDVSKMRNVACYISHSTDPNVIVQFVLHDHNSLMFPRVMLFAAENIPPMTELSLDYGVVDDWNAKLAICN
The description is as above.

Test [4] has as its target T4, MORC6 (yeast two-hybrid fusion) (Arabidopsis thaliana) (UniProt Q56Y74).
T4 sequence: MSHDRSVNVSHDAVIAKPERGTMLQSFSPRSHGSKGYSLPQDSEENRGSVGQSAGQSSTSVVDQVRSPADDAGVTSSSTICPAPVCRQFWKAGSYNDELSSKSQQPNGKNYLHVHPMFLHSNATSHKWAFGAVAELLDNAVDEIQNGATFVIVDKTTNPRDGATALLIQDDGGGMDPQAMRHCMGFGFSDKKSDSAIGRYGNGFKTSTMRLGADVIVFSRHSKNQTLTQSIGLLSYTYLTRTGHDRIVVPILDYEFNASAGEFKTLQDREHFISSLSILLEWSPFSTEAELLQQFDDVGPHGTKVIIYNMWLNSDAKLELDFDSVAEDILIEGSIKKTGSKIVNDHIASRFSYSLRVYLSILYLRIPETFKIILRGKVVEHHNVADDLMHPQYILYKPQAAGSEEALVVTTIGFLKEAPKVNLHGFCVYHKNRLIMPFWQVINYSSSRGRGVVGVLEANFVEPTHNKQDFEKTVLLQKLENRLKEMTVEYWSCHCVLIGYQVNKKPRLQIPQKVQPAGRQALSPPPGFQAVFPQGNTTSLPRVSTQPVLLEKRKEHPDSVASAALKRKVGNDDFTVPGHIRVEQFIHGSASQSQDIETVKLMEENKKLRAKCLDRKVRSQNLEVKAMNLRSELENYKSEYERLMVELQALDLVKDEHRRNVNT
Briefly: two-hybrid; GAL4-AD (pGADT7) and GAL4-BD (pGBKT7) fusions in yeast strain PJ694a; growth on SD-TLH, 20 mM 3-AT.

Test [5] addresses … IN MERISTEM … 3 (DMS3), endogenous (Arabidopsis thaliana (endogenous in plants)) (UniProt Q94A79). The test can be described thus: co-IP; protein extracts of transgenic plants incubated with agarose-conjugated antibodies in Lysis buffer at 4°C for 2-3 h, four washes, Western blotting.

With “… IN MERISTEM … 3 (DMS3), endogenous (from UniProt Q94A79 1-420)”, in test [1], the binding entry is “binds”.

B1: MORC6-3xMyc (protein, UniProt Q56Y74 1-663)
chain: MSHDRSVNVSHDAVIAKPERGTMLQSFSPRSHGSKGYSLPQDSEENRGSVGQSAGQSSTSVVDQVRSPADDAGVTSSSTICPAPVCRQFWKAGSYNDELSSKSQQPNGKNYLHVHPMFLHSNATSHKWAFGAVAELLDNAVDEIQNGATFVIVDKTTNPRDGATALLIQDDGGGMDPQAMRHCMGFGFSDKKSDSAIGRYGNGFKTSTMRLGADVIVFSRHSKNQTLTQSIGLLSYTYLTRTGHDRIVVPILDYEFNASAGEFKTLQDREHFISSLSILLEWSPFSTEAELLQQFDDVGPHGTKVIIYNMWLNSDAKLELDFDSVAEDILIEGSIKKTGSKIVNDHIASRFSYSLRVYLSILYLRIPETFKIILRGKVVEHHNVADDLMHPQYILYKPQAAGSEEALVVTTIGFLKEAPKVNLHGFCVYHKNRLIMPFWQVINYSSSRGRGVVGVLEANFVEPTHNKQDFEKTVLLQKLENRLKEMTVEYWSCHCVLIGYQVNKKPRLQIPQKVQPAGRQALSPPPGFQAVFPQGNTTSLPRVSTQPVLLEKRKEHPDSVASAALKRKVGNDDFTVPGHIRVEQFIHGSASQSQDIETVKLMEENKKLRAKCLDRKVRSQNLEVKAMNLRSELENYKSEYERLMVELQALDLVKDEHRRNVNT
Consider B1, for which the binding result in test [2] and in test [3] was “binds” in each case.

B2: SUVH9 (yeast two-hybrid fusion) (protein, UniProt Q9T0G7 1-650)
chain: MGSSHIPLDPSLNPSPSLIPKLEPVTESTQNLAFQLPNTNPQALISSAVSDFNEATDFSSDYNTVAESARSAFAQRLQRHDDVAVLDSLTGAIVPVEENPEPEPNPYSTSDSSPSVATQRPRPQPRSSELVRITDVGPESERQFREHVRKTRMIYDSLRMFLMMEEAKRNGVGGRRARADGKAGKAGSMMRDCMLWMNRDKRIVGSIPGVQVGDIFFFRFELCVMGLHGHPQSGIDFLTGSLSSNGEPIATSVIVSGGYEDDDDQGDVIMYTGQGGQDRLGRQAEHQRLEGGNLAMERSMYYGIEVRVIRGLKYENEVSSRVYVYDGLFRIVDSWFDVGKSGFGVFKYRLERIEGQAEMGSSVLKFARTLKTNPLSVRPRGYINFDISNGKENVPVYLFNDIDSDQEPLYYEYLAQTSFPPGLFVQQSGNASGCDCVNGCGSGCLCEAKNSGEIAYDYNGTLIRQKPLIHECGSACQCPPSCRNRVTQKGLRNRLEVFRSLETGWGVRSLDVLHAGAFICEYAGVALTREQANILTMNGDTLVYPARFSSARWEDWGDLSQVLADFERPSYPDIPPVDFAMDVSKMRNVACYISHSTDPNVIVQFVLHDHNSLMFPRVMLFAAENIPPMTELSLDYGVVDDWNAKLAICN
On to B2, for which the binding entry in test [4] is reported as “binds”.

B3: SUVH2-3xMyc (protein, UniProt O22781 1-651)
chain: MSTLLPFPDLNLMPDSQSSTAGTTAGDTVVTGKLEVKSEPIEEWQTPPSSTSDQSANTDLIAEFIRISELFRSAFKPLQVKGLDGVSVYGLDSGAIVAVPEKENRELIEPPPGFKDNRVSTVVVSPKFERPRELARIAILGHEQRKELRQVMKRTRMTYESLRIHLMAESMKNHVLGQGRRRRSDMAAAYIMRDRGLWLNYDKHIVGPVTGVEVGDIFFYRMELCVLGLHGQTQAGIDCLTAERSATGEPIATSIVVSGGYEDDEDTGDVLVYTGHGGQDHQHKQCDNQRLVGGNLGMERSMHYGIEVRVIRGIKYENSISSKVYVYDGLYKIVDWWFAVGKSGFGVFKFRLVRIEGQPMMGSAVMRFAQTLRNKPSMVRPTGYVSFDLSNKKENVPVFLYNDVDGDQEPRHYEYIAKAVFPPGIFGQGGISRTGCECKLSCTDDCLCARKNGGEFAYDDNGHLLKGKHVVFECGEFCTCGPSCKSRVTQKGLRNRLEVFRSKETGWGVRTLDLIEAGAFICEYAGVVVTRLQAEILSMNGDVMVYPGRFTDQWRNWGDLSQVYPDFVRPNYPSLPPLDFSMDVSRMRNVACYISHSKEPNVMVQFVLHDHNHLMFPRVMLFALENISPLAELSLDYGLADEVNGKLAICN
As to B3, the binding result in test [5] is “binds”.
